This is one part of the list. These are further read-outs of the screen, such as a control signal, another cell line or another target. No call is given for them. Compounds called inactive in the main read-out are mostly missing here. Potencies come from curve fits of mixed quality, noted in brackets.
test: Natriuretic polypeptide receptor (hNpr1) antagonism - Confirmation; conditions: HEK293 hNpr1 cGMP GloSensor luminescence, ANP-stimulated; measured here: HEK-hNpr1 cytotoxicity, CellTiter-Glo; note: nearly all actives have a fitted effect of over 70% in size
Protocol: In order to identify small molecular compounds that inhibit the hNpr1 receptor we developed a high-throughput assay to measure inhibition of the guanylate cyclase activity of the receptor. cGMP production was measured using a circular permutated Firefly luciferase (FLuc) enzyme functionally linked to the cGMP binding domain of human phosphodiesterase 5 (GloSensor technology pGS-40F, (Fan, F. et al. 2008). The cGMP-sensor was expressed in human embryonic kidney 293 (HEK-293) cells and FLuc activity was measured after stimulation with hNrp agonist peptide. hNrp agonists activates the receptor's associated guanylyl cyclase (GC) domain producing cGMP which then binds to the GloSensor resulting in FLuc activation, the enzymatic activity of which can be measured as bioluminescence with addition of luciferin substrate. A cytotoxicity counter-screen using the HEK-hNpr1-cGMP-sensor cells was also performed on the follow-up compounds. F. Fan, B. F. Binkowski, B. L. Butler, P. F. Stecha, M. K. Lewis, K. V. Wood, Novel genetically encoded biosensors using firefly luciferase. ACS Chem Biol 3, 346-351 (2008).
PROTOCOL TABLES (as described by Inglese J, Shamu CE and Guy RK. 2007) SEQUENCE No. (e.g., 1, 2, 3, etc.); PARAMETER (e.g., Cells, Incubation, Reagent, etc.); VALUE and DESCRIPTION. GLOSENSOR PROTOCOL 1. Cells. Seed 1500 HEK293 cGMP-sensor cells expressing hNpr1 per well in 4uL into Greiner 1536-well white/solid bottom high base, tissue culture-treated plates. 2. Incubation. Incubate plated cells at 37C in 5% CO2, 95% RH overnight. 3. Reagent. Add 1uL per well GloSensor reagent from Promega (2% final concentration) or CO2 independent media vehicle control to respective columns of Greiner 1536-well plates. 4. Incubation. Incubate plated cells at room temperature for 2 h, protect from light. 5. Compounds. Library compounds and A-71915 control added at 23 nL per well, transferred by Pin Tool. 6. Incubation. Incubate plated cells for 30 min. at room temperature, protect from light. 7. Detector. GloSensor baseline pre-read luminescence measured using CCD-based camera (Viewlux). 8. Compound. Add 1uL of hNppA peptide to 0.1 nM final concentration to stimulate hNpr1 or CO2 independent media as vehicle control. 9. Incubation. Incubate treated cells at room temperature for 20 min., protect from light. 10. Detector. GloSensor post-hNppA luminescence measured using CCD-based camera (Viewlux). NOTES (numbers refer to Sequence numbers above) 1. HEK293 cells expressing hNpr1 and GIP/pGS-40F grown to 85-95% confluence (48-72 h) in T175 culture flasks (CO2 independent media supplemented with 10% FBS, 1% Pen/Strep antibiotics and 1 ug/mL puromycin). Trypsinize and harvest cells from T175 culture flasks and filter through 40 um cell strainer. Cells counted with Invitrogen Countess (30,000,000 - 50,000,000 cells/flask). Cells diluted to a final concentration of 375 cells/uL in CO2 independent media and a Millipore multidrop used to dispense 1500 cells per well (4uL/well) into 13 1536-well Greiner White/Solid bottom, high base tissue-culture treated (TC) plates and one Aurora 1536-well Black/Clear bottom, low base, TC plate (for visual inspection of cell health throughout the duration of the assay). 2. Cells incubated overnight at ambient temperature, 24 h. at 37C in 95% RH incubator protected from light, covered with metal lid with gas-exchange holes. 3. Prepare GloSensor Reagent (Promega): Reconstitute GloSensor luciferase substrate by adding 8.2mL Hepes buffer to 250mg substrate, mix well, protect from light and stored at -80C. Prepare a fresh 12% GloSensor solution in CO2 independent supplemented plating media (see above). Mix well and store at ambient temperature, protected from light. 1uL 12% GloSensor Luciferase Reagent added (2% final concentration) to respective columns of 13 x 1536-well Greiner plate with BioRaptr, 1uL CO2 independent plating media added to respective columns as vehicle control with BioRaptr. 4. […]
Tags give direction and shape of the fitted curve.

SMILES	CC50
COc1ccc(-c2noc(CC3CCN(C(=O)c4cc(Cl)ccc4OC)CC3)n2)cc1	24.3 µM [falling, partial curve]
O=C(COc1ccc(Cl)cc1)N1CCC(Cc2nc(-c3ccccc3)no2)CC1	19.3 µM [falling, partial curve]
COc1ccc(-c2cc(N3CCN(C(=O)c4ccc(OC)cc4OC)CC3)n[nH]2)cc1	19.3 µM [falling, partial curve]
O=C(CCC1CCN(C(=O)c2ccccc2F)CC1)Nc1cccc(Cl)c1	30.6 µM [falling, single point]
CN(C)[S+](=O)([O-])c1ccc2c(c1)OCCN(Cc1ccc(C(F)(F)F)cc1)C2	28 µM [falling, partial curve]
COc1ccccc1C(=O)NC1CCN(c2cc(C(F)(F)F)nc(C)n2)CC1	27.3 µM [falling, single point]
CN(C)c1cccc(Oc2nnnn2[C@H]2CO[C@H]3[C@@H]2OC[C@@H]3NC(=O)c2ccccc2)c1	21.7 µM [falling, partial curve]
O=C(Nc1ccccc1)N1CC(Oc2ccc(-c3noc(-c4ccncc4)n3)cc2)C1	6.85 µM [falling, full curve]
CC(C)c1ccc(CC(=O)N2CCCc3ncc(C(=O)Nc4ccccc4)cc32)cc1	19.8 µM [falling, partial curve]
O=C1COc2ccc(N3CCCC3)nc2CN1Cc1ccc(C(F)(F)F)cc1	49.8 µM [falling, single point]
COc1ccc(NC(=O)c2ccc3c(c2)NC(C)(CNc2ccccc2)CO3)cn1 (stereo unspecified)	35.3 µM [falling, partial curve]
COc1ccc(-c2nnc(C[C@@H]3C[C@@H](C(C)C)[C@H](CNc4ccccn4)C=C3C)o2)cc1	31.4 µM [falling, partial curve]
CCCCN(C)C(=O)CC1CCN(c2ccnc(OC)n2)CC1	19.3 µM [falling, partial curve]
Cc1ccc(OCCC2CCN(C(=O)Cc3cccnc3)C2)cc1 (stereo unspecified)	30.6 µM [falling, single point]
CN(Cc1cccnc1)c1nc2c(c(=O)[nH]1)CCN(Cc1ccc(Cl)cc1F)CC2	17.2 µM [falling, partial curve]
Fc1cccc(CN2CCC(Oc3ccc(-c4noc(C5CC5)n4)cc3)C2)c1 (stereo unspecified)	24.3 µM [falling, partial curve, poor fit]
Cc1ccc(C(=O)N2CCN(C(=O)c3nnn4c3COC(c3ccc(Cl)cc3)C4)CC2)c(C)c1 (stereo unspecified)	21.7 µM [falling, partial curve]
Cc1ccc(CN2C[C@@H](CO)[C@H](c3nc(-c4ccncc4)no3)C2)cc1	24.3 µM [falling, partial curve]
COc1ccccc1-c1ccc(CN2CCCC(c3nc4ccc(C)cc4c(=O)[nH]3)C2)cc1 (stereo unspecified)	43.2 µM [falling, single point]
COc1ccc(C(=O)Nc2ccc(-c3noc([C@@H]4CCCN4Cc4ccco4)n3)cn2)cc1	19.3 µM [falling, partial curve]
Cn1cc(-c2cnc3[nH]cc(CC(=O)Nc4ccc(C(F)(F)F)cc4)c3c2)cn1	19.8 µM [falling, partial curve]

SMILES	CC50
O=C(NC1CCN(Cc2ccccc2)CC1)c1cc2n(n1)CC(c1ccc(Cl)cc1)OC2 (stereo unspecified)	9.68 µM [falling, partial curve]
CC(C)C1=NOC2(CCN(Cc3ccc(C(F)(F)F)cc3)CC2)C1	22.2 µM [falling, partial curve]
COc1cccc(-c2ccccc2NC(=O)C2CCN(Cc3cc(OC)ccc3O)CC2)c1	38.5 µM [falling, single point]
COc1ccc(C(=O)N[C@H]2CO[C@H]3[C@@H]2OC[C@@H]3n2nnnc2Oc2cccc(N(C)C)c2)cc1	17.2 µM [falling, partial curve]
CN(CCc1ccccc1)C(=O)CCC1CCN(c2cc(NC3CC3)ncn2)CC1	21.7 µM [falling, partial curve]
COc1cccc(N2CCN(c3nc(C(=O)NCc4cccc(C)c4)cs3)CC2)c1	15.3 µM [falling, partial curve]
Cc1ccc(C(=O)N2CCN(c3cc(-c4cccs4)[nH]n3)CC2)c(C)c1	24.3 µM [falling, partial curve]
Fc1ccc(CN2CCC(Oc3ccccc3-c3nc(-c4cnccn4)no3)C2)cc1F (stereo unspecified)	24.3 µM [falling, partial curve, poor fit]
Cc1ccc(C(=O)N2CCC(Cc3nc(-c4ccc(F)cc4)no3)CC2)cn1	1.93 µM [falling, full curve]
O=C1COCC2(CN1)CN(c1ccc(Oc3ccccc3)cc1)C2	11.1 µM [falling, full curve]
O=C(c1cc(F)cc(F)c1)N1CCC(Cc2nc(-c3ccccc3)no2)CC1	9.68 µM [falling, partial curve]
CN(C)c1ccc(CN2CCn3c(nn(-c4ccc([N+](=O)[O-])cc4)c3=O)C2)cc1	34.3 µM [falling, single point]
O=C(c1ccncc1)N1C2CCC1CN(c1ccc(C(F)(F)F)cc1)C2	21.7 µM [falling, partial curve]
O=C(NCCc1cccnc1)c1cc2n(n1)CC(c1ccc(Br)cc1)OC2 (stereo unspecified)	19.3 µM [falling, partial curve]
O=C(c1ccc2cc[nH]c2c1)N1CCC2(CC1)N=C(c1ccc(Cl)cc1)NO2	24.3 µM [falling, partial curve]
CCCn1cc(C(=O)NC(C)c2cnn(-c3cccc(F)c3)c2C)c(C)n1 (stereo unspecified)	3.85 µM [falling, full curve]
O=C(NCc1ccccc1F)c1ccc2c(c1)CN(Cc1ccncc1)CCO2	19.3 µM [falling, partial curve]
Cc1cc(=O)n(CC(=O)Nc2ccc(Cl)cc2F)c(N(C)Cc2ccccc2)n1	19.3 µM [falling, partial curve]
CC(C)NC(=O)N[C@H]1C[C@@H](Cc2cc(CN3CCN(c4ccccc4)CC3)on2)C1(C)C	15.3 µM [falling, partial curve]
Cc1ccc(NC(=O)N2CCC3(CC2)CC(Cc2nc(-c4ccccc4)no2)CCO3)cc1C (stereo unspecified)	12.2 µM [falling, partial curve]
COCc1nc(-c2ccc(OC3CCN(C(=O)CCc4ccc(OC)cc4)C3)cc2)no1 (stereo unspecified)	27.3 µM [falling, partial curve]

SMILES	CC50
O=C(c1ccc2nc[nH]c2c1)N1CCC(CO)(CCCc2ccccc2)CC1	21.7 µM [falling, partial curve]
CCn1nc(C)c(CNC(=O)c2cc(COc3ccc4ncccc4c3)on2)c1C	13.7 µM [falling, partial curve]
COc1cccc(CC(=O)N2CCC(n3cc(-c4nc(-c5ccccc5)no4)nn3)CC2)c1	19.3 µM [falling, partial curve]
COc1ccc([S+](=O)([O-])N2CCC3(CC2)OCCN(c2ccc(F)cc2)C3=O)cc1	44.4 µM [falling, single point]
COc1ncccc1-c1cnc2[nH]cc(CC(=O)Nc3cccc(Cl)c3)c2c1	35.3 µM [falling, partial curve]
O=C(c1ccc(F)cc1)N1CCC2(CC1)CC(N(Cc1ccc(F)cc1)C1CC1)CCO2 (stereo unspecified)	27.3 µM [falling, single point]
O=C1COc2ccc(NCc3cccs3)nc2CN1CCOc1ccccc1	31.4 µM [falling, partial curve]
COc1cccc(-c2noc(CC3CCN(C(=O)c4cccc(F)c4)CC3)n2)c1	13.7 µM [falling, partial curve]
CC1=C[C@@H](CNS(C)(=O)=O)[C@H](C(C)C)C[C@H]1Cc1nc2ccccc2n1C	35.3 µM [falling, partial curve]
O=C(Nc1ccc(Oc2ccccc2)cc1)O[C@@H]1CO[C@H]2[C@@H]1OC[C@@H]2NC(=S)Nc1cccc2ccccc12	10.9 µM [falling, partial curve]
CCOc1ccc(CC(=O)N2CCC(Cc3nc(-c4ccc(F)cc4)no3)CC2)cc1	6.85 µM [falling, full curve]
Cc1ccsc1C(=O)N1CCN(c2cc(-c3ccc(Cl)cc3)[nH]n2)CC1	24.3 µM [falling, partial curve]
O=C(NCc1cccs1)c1csc(N2CCN(c3ccccc3F)CC2)n1	30.6 µM [falling, single point]
Cc1ccc(NC(=O)c2cc3n(n2)CC(c2ccc4c(c2)OCO4)OC3)cc1Cl (stereo unspecified)	34.3 µM [falling, single point]
CN(C)c1ccc2ncc(Nc3ccc(Oc4ccccc4)cc3)n2n1	31.4 µM [falling, partial curve]
CCNC(=O)N1CCOc2ccc(CCC(=O)Nc3ccc(C)cc3)cc2C1	19.3 µM [falling, partial curve]
CCOc1ccc(C(=O)N2CCCN(c3cc(-c4ccc(F)cc4)[nH]n3)CC2)cc1	19.3 µM [falling, partial curve]
O=C(c1cc(F)ccc1F)N1CCC2(CC1)N=C(c1ccc(Cl)cc1)NO2	34.3 µM [falling, single point]
Cc1ccccc1S(=O)(=O)N1CCCC(CCC(=O)Nc2cccc(Cl)c2)C1 (stereo unspecified)	21.7 µM [falling, partial curve]

Source: PubChem BioAssay AID1347044 (National Center for Advancing Translational Sciences (NCATS), 2019)
